# Laboratory results published in PubChem BioAssay AID2100 (National Center for Advancing Translational Sciences (NCATS), 2009).
# Hit rate of the full screen: of about 300,000 compounds, about 1,200 (0.4%) were called active. Inconclusive results, whose numbers are uncertain, are shown with a selection of clear calls. The call rests on the fitted dose curve; in most records, active means well fitted inhibition curve with a large enough effect; inconclusive means small, poorly fitted or top-dose-only effect, or another doubt; inactive means no such curve, though single readings can be large or run the other way. A potency beside an inconclusive call is a rough fit, not a confirmed value.
# Biological target: Lysosomal alpha-glucosidase (Homo sapiens) (UniProt P10253)
# Test: qHTS Assay for Inhibitors and Activators of Human alpha-Glucosidase Cleavage of Glycogen;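 on activity change, negative = inhibition: 0% = full enzyme reaction and -100% = no-enzyme basal signal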
# Conditions: recombinant GAA, glycogen substrate, Amplex Red glucose oxidase fluorescence; activity change, negative = inhibition: at 76.4 µM (top of the series) unless noted
# Outline: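 Recombinant human enzyme (4 nM); glycogen substrate; 37 C, 40 min, pH 5.0. Readout: coupled glucose oxidase/Amplex Red fluorescence.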
# Potency means the concentration at half of the fitted maximal effect.
Compound,Potency,"activity change, negative = inhibition"
O=C(CN(c1cccc(Br)c1)S(=O)(=O)c1ccccc1)N1CCc2ccccc2C1,inactive,–
COCCCNC(=O)c1ccccc1NS(C)(=O)=O,inactive,–
CCN1CCS/C1=C\C=C\C1=[N+](CC)CCS1,inactive,–
Cc1cc(NC(=O)CSc2cn(CCNC(=O)c3ccc(Cl)cc3)c3ccccc23)no1,"inconclusive: 10 µM [inhibitor, partial curve, poor fit]",–
CCC(=O)Nc1sc2c(c1C#N)CCC2,inactive,–
COc1ccc(C(=O)NNc2cc(C)nc(NNC(=O)c3ccc(OC)cc3)n2)cc1,"inconclusive: 8.84 µM [inhibitor, single point]",–
O=C(Nc1ccc(Br)cc1)C1CCN(S(=O)(=O)c2cccc3nsnc23)CC1,inactive,–
O=[N+]([O-])c1cc(-c2nc(-c3cccnc3)no2)ccc1NCc1ccccc1,inactive,–
Cc1cccc(NC(=O)N(Cc2cc3cc(C)cc(C)c3[nH]c2=O)CC2COCCO2)c1 (stereo unspecified),"inconclusive: 6.31 µM [inhibitor, single point]",–
CC(C)c1ccc(O)c(NC(=O)c2cncc(Br)c2)c1,"inconclusive: 31.4 µM [inhibitor, partial curve]",–
COc1ccc(C(=O)NNC(=S)Nc2ccccc2)cc1,"inconclusive: 11.2 µM [inhibitor, full curve, poor fit]",–
CC(=O)C1=C(C)NC(SCC(=O)c2cc(Cl)ccc2Cl)=C(C#N)C1c1ccco1 (stereo unspecified),"inconclusive: 31.6 µM [inhibitor, partial curve]",–
CN1CCC(=NNC(=O)C(=O)Nc2cccc(Br)c2)CC1,"inconclusive: 4.47 µM [inhibitor, full curve]",–
Cc1c(C(c2ccc(N(C)C)cc2)c2c(C)n(C)n(-c3ccccc3)c2=O)c(=O)n(-c2ccccc2)n1C,"inconclusive: 24.9 µM [activator, single point]",–
O=C1CC(c2nc3ccccc3n2CCCOc2ccccc2)CN1c1ccc(F)cc1 (stereo unspecified),inactive,–
C/C(=N\Nc1ccc(F)cc1F)c1ccc(N2CCOCC2)cc1,"inconclusive: 28.2 µM [inhibitor, partial curve]",–
CCCCC(=O)NNC(=S)NC(=O)c1cccc([N+](=O)[O-])c1,"inconclusive: 28 µM [inhibitor, partial curve]",–
Cc1c(C(=O)NCc2ccccc2)sc2nc3n(c(=O)c12)CCC3,inactive,–
O=S(=O)(c1ccccc1)C(/C=N\O)/C=C/c1ccccc1 (stereo unspecified),"inconclusive: 50.1 µM [inhibitor, single point]",–
Oc1ccc(Nc2nc(N3CCCC3)c3ccccc3n2)cc1,"inconclusive: 11.1 µM [inhibitor, partial curve]",–
COC(=O)c1[nH]c2ccccc2c1NS(=O)(=O)c1ccc(OC)cc1OC,"inconclusive: 31.6 µM [inhibitor, partial curve]",–
c1ccc(Cn2ncc3c(NCc4ccco4)ncnc32)cc1,inactive,–
C/C(=N/NC(N)=S)c1ccc(Br)s1,"inconclusive: 31.4 µM [inhibitor, partial curve]",–

Compound,Potency,"activity change, negative = inhibition"
CC(C)CNS(=O)(=O)c1cc(C(=O)OCC(=O)c2ccc3c(c2)OCCO3)c(Cl)cc1Cl,"inconclusive: 31.6 µM [activator, single point]",–
Cn1c(=O)n(C)c2cc(NS(=O)(=O)c3ccc(Br)cc3)c(NCc3ccccc3)cc21,"inconclusive: 35.5 µM [inhibitor, single point]",–
CCOc1ccc(-n2c(=O)c3c(C)c(C)sc3n(CC(=O)c3ccccc3)c2=O)cc1,inactive,–
Nc1n[nH]c2cccc(Cl)c12,"inconclusive: 14 µM [inhibitor, partial curve]",–
Cc1ccc(NCC(O)Cn2cnc3c2c(=O)n(C)c(=O)n3C)cc1 (stereo unspecified),"inconclusive: 39.5 µM [inhibitor, single point]",–
COc1ccc2[nH]c(C)c(CCNC(=S)Nc3cccc(C)c3C)c2c1,"inconclusive: 28.2 µM [inhibitor, single point]",–
COc1cc(/C(C)=N/NC(=O)CN2CCN(S(=O)(=O)c3ccc(C)cc3)CC2)ccc1O,"inconclusive: 35.5 µM [inhibitor, single point]",–
Cc1ccccc1NC(=O)c1[nH]cnc1C(=O)NN,"inconclusive: 12.6 µM [inhibitor, partial curve]",–
CC(C)CC1NC(=S)N(C2CCCCC2)C1=O (stereo unspecified),"inconclusive: 31.6 µM [inhibitor, partial curve]",–
Oc1ccc(Nc2nc(-c3ccc4ccccc4c3)cs2)cc1,active: 5.62 µM,–
O=C(O)CC[C@@H](C(=O)O)N1C(=O)c2ccccc2C1=O,inactive,–
S=c1[nH]nc(COc2ccccc2)n1/N=C/c1ccc(Br)s1,"inconclusive: 28.2 µM [inhibitor, single point]",–
CCOc1cc(CNc2ccc(O)cc2)ccc1OCc1ccc(Cl)cc1,"inconclusive: 11.2 µM [inhibitor, single point]",–
C=CCNC(=S)NNc1ncnc2sc3c(c12)CC(C)(C)OC3,active: 11.2 µM,–
COc1ccc(-n2nnnc2SCC(=O)c2ccc(O)c(O)c2)cc1,active: 8.84 µM,–
NNc1nnc(-c2ccccc2)c(-c2ccccc2)n1,"inconclusive: 22.2 µM [inhibitor, partial curve, poor fit]",–
Cc1ccc(N(CC(=O)NCCc2ccccc2)S(=O)(=O)N(C)C)cc1,inactive,–
CCCCN1c2cc(C)c(O)cc2C(C(=O)OCC)C1C (stereo unspecified),"inconclusive: 12.5 µM [inhibitor, partial curve]",–
Cc1ccc2nc(-c3ccc(O)cc3)c(Nc3ccc4c(c3)OCCO4)n2c1,active: 14.1 µM,–
C=C(C)COc1ccc(-c2n[nH]c(C)c2-c2ccc(Br)cc2)c(O)c1,–,inconclusive: 127% [activator]
N#Cc1c(N)oc(-c2ccco2)c1-c1ccco1,"inconclusive: 35.5 µM [inhibitor, single point]",–
N#CC1=C(SCC(N)=O)NC2=C(C(=O)c3ccccc32)C1c1ccc(Cl)cc1 (stereo unspecified),"inconclusive: 39.5 µM [activator, single point]",–
CC(=O)Nc1ccc(S(=O)(=O)Nc2ccc(Nc3ccccc3)cc2)cc1,"inconclusive: 8.84 µM [inhibitor, partial curve]",–
